From the supplement of paper PMC4967469
The IC50 comes from the fitted curve, where viability falls to half of the control; where the fit passes the top or lowest dose, that dose stands as a limit. AUC is the area under the same curve over the 256-fold range up to the top dose, as a fraction; the more sensitive the line, the further below 1. For some of these results: An inferred top dose was calculated from the reported fits.

How the values were obtained:
Assay in all cases: Viability of human cancer cell lines after 72 h of drug (GDSC screen)
Dabrafenib = compound: CC(C)(C)c1nc(-c2cccc(NS(=O)(=O)c3c(F)cccc3F)c2F)c(-c2ccnc(N)n2)s1 [Dabrafenib]; conditions: top dose 10 µM
Method: (§1)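 Human cancer cell lines in 384-well plates, medium with 10% serum, drug for 72 h over a 256-fold dose range (nine 2-fold or five 4-fold steps up to the top dose). Adherent lines were fixed and stained with the nucleic acid dye Syto60, suspension lines read with resazurin; signal relative to control wells, capped at 0 and 100%. One two-parameter sigmoid per drug and line, fitted in a mixed model over all curves with the slope shared within a line.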

SN-38 = compound: CCc1c2c(nc3ccc(O)cc13)-c1cc3c(c(=O)n1C2)COC(=O)[C@]3(O)CC [SN-38]; conditions: top dose 0.05 µM; top dose inferred
Method: as §1

Methotrexate = compound: CN(Cc1cnc2nc(N)nc(N)c2n1)c1ccc(C(=O)N[C@@H](CCC(=O)O)C(=O)O)cc1 [Methotrexate]; conditions: top dose 0.2 µM
Method: as §1

Axitinib = compound: CNC(=O)c1ccccc1Sc1ccc2c(/C=C/c3ccccn3)n[nH]c2c1 [Axitinib]; conditions: top dose 2 µM
Method: as §1

Vorinostat = compound: O=C(CCCCCCC(=O)Nc1ccccc1)NO [Vorinostat]; conditions: top dose 10 µM
Method: as §1

| Cell Line | AUC (Dabrafenib) | IC50 (Dabrafenib) | AUC (SN-38) | IC50 (SN-38) | AUC (Methotrexate) | IC50 (Methotrexate) | AUC (Axitinib) | IC50 (Axitinib) | AUC (Vorinostat) | IC50 (Vorinostat) |
| --- | --- | --- | --- | --- | --- | --- | --- | --- | --- | --- |
| RO82-W-1 (thyroid, adherent) | 0.921 | > 10000 nM | 0.669 | 10.6 nM | 0.974 | > 200 nM | 0.923 | > 2000 nM | 0.849 | > 10000 nM |
| RPMI-2650 (head and neck, adherent) | 0.94 | > 10000 nM | 0.503 | 3.18 nM | 0.969 | > 200 nM | 0.95 | > 2000 nM | 0.733 | 3080 nM |
| RVH-421 (melanoma, adherent) | 0.446 | 423 nM | 0.866 | > 50 nM | 0.979 | > 200 nM | 0.968 | > 2000 nM | 0.825 | 9260 nM |
| Ramos-2G6-4C10 (Burkitt lymphoma, suspension) | 0.99 | > 10000 nM | 0.915 | > 50 nM | 0.708 | 43.6 nM | 0.886 | 1660 nM | 0.392 | 331 nM |
| SBC-1 (small cell lung carcinoma, suspension) | 0.987 | > 10000 nM | 0.831 | 30.2 nM | 0.91 | > 200 nM | 0.947 | > 2000 nM | 0.479 | 549 nM |
| SBC-3 (small cell lung carcinoma, adherent) | 0.943 | > 10000 nM | 0.367 | 1.39 nM | 0.701 | 43.2 nM | 0.881 | 1760 nM | 0.55 | 845 nM |
| SCC90 (head and neck, adherent) | 0.978 | > 10000 nM | 0.978 | > 50 nM | 0.981 | > 200 nM | 0.935 | > 2000 nM | 0.808 | 8120 nM |
| SCC-4 (head and neck, adherent) | 0.947 | > 10000 nM | 0.758 | 20.3 nM | 0.977 | > 200 nM | 0.902 | > 2000 nM | 0.72 | 2980 nM |
| SCC-9 (head and neck, adherent) | 0.973 | > 10000 nM | 0.809 | 35.5 nM | 0.972 | > 200 nM | 0.975 | > 2000 nM | 0.881 | > 10000 nM |
| SCC-25 (head and neck, adherent) | 0.948 | > 10000 nM | 0.904 | > 50 nM | 0.971 | > 200 nM | 0.979 | > 2000 nM | 0.801 | 5620 nM |
| SF126 (glioma, adherent) | 0.98 | > 10000 nM | 0.565 | 4.75 nM | 0.986 | > 200 nM | 0.856 | 1760 nM | 0.823 | 6310 nM |
| SH-4 (melanoma, adherent) | 0.111 | < 39.1 nM | 0.71 | 17.3 nM | 0.963 | > 200 nM | 0.959 | > 2000 nM | 0.854 | > 10000 nM |
| SHP-77 (small cell lung carcinoma, semi-adherent) | 0.987 | > 10000 nM | 0.911 | > 50 nM | 0.956 | > 200 nM | 0.992 | > 2000 nM | 0.858 | 6870 nM |
